Source: PubChem BioAssay AID1671188 (National Center for Advancing Translational Sciences (NCATS), 2021)
“And” between values parts separate entries of the source, which are not always exact repeats. Equal entries are not always repeated. Out of some 100,000 compounds screened, about 250 (0.25%) were called active. The inconclusive results got no clear call from the source; some entries with a clear call stand among them for comparison. The call rests on the fitted dose curve; in most records, active means well fitted inhibition curve with a large enough effect; inconclusive means small, poorly fitted or top-dose-only effect; inactive means flat fitted curve, though single readings scatter. Potencies beside an inconclusive call are fits to weak or partial responses and may not hold up.

biological target: Alanine aminotransferase 2 (Homo sapiens) (UniProt Q8TD30); experiment: Primary qHTS assay for inhibitors of Glutamate pyruvate transaminase 2 (GPT2); conditions: Recombinant GPT2, coupled pyruvate oxidase/HRP Amplex Red fluorescence; activity change, negative = inhibition: at 57.7 µM (top of the series) unless noted; series mostly up to 57.7 µM; further: nearly all actives have a fitted effect of over 60% in size
UniProt Q8TD30, sequence (Q8TD30 whole entry, looked up): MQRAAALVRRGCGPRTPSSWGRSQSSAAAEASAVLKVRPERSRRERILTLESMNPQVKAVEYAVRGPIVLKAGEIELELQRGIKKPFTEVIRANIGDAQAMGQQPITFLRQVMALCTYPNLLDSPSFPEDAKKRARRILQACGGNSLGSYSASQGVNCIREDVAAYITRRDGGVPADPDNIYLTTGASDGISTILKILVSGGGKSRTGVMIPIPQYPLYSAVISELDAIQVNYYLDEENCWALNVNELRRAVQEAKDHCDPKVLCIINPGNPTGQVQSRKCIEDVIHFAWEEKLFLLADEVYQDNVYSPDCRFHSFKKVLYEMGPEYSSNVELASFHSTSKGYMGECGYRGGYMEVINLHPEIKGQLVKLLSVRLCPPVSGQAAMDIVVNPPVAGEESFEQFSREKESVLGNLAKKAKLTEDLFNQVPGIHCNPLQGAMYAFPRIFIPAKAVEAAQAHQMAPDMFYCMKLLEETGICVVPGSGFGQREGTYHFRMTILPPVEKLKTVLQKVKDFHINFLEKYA
Summary of the method: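 Inhibition is scored from Amplex Red fluorescence generated when pyruvate oxidase and HRP act on pyruvate released by GPT2. Reactions contain 10ng/uL enzyme, 250uM a-KG and 2mM L-alanine and run 30 min at room temperature.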
On the % scale 0 is the no-effect control and ±100 the full control effect; potency means the concentration at half of the fitted maximal effect; tags describe the fitted curve by direction and shape.

Question: With COc1cccc(CC(=O)N2CCC3(CC2)NC(=O)N(c2cccc(Cl)c2)N3)c1 as the molecule, how does the Potency read?
Answer: Its Potency is inconclusive: 25.1 µM [inhibitor, single point].

Question: Which Potency does the source give for CCC(C)C(=O)OC1C(C)C2(O)C(C=C(CO)CC3(O)C(=O)C(C)=CC32)C2C(C)(C)C12OC(=O)C(C)C (configuration not stated) here?
Answer: The Potency was inconclusive: 0.891 µM [inhibitor, full curve, poor fit].

Question: For Cc1ccc(CN2C(=O)[C@@H]3C[C@@H](O)CN3C3(CN(Cc4ccc(C(F)(F)F)cc4)C3)C2=O)o1, which Potency is on record?
Answer: Its Potency is inconclusive: 39.8 µM [inhibitor, single point].

Question: How did the Potency turn out when COc1ccc(N2CCN(C(=O)CC3CCCCN(C)C3=O)CC2)cc1 (configuration not stated) was run?
Answer: The Potency was inconclusive: 3.16 µM [inhibitor, full curve, poor fit].

Question: How did the Potency turn out when O=C1Nc2ccc(-c3ccccc3)cc2C(=O)N2CCN(C(=O)c3ccccc3)C[C@H]12 was run?
Answer: The Potency was inconclusive: 7.94 µM [inhibitor, single point].

Question: With CC(C)n1c(C2CCN(C(=O)C3CCCO3)CC2)nn(C)c1=O (configuration not stated) as the molecule, how does the “outcome” value read?
Answer: The value was “inactive”.

Question: O=C(/C=C/c1ccc(O)cc1)O[C@H]1[C@@H]2C=CO[C@@H](O[C@@H]3O[C@H](CO)[C@@H](O)[C@H](O)[C@H]3O)[C@@H]2[C@@]2(CO)O[C@@H]12 was tested. Which Potency did it give?
Answer: The Potency was inconclusive: 2.51 µM [inhibitor, single point].

Question: O=C(c1ccc(F)cc1)N1CCCN(Cc2ccc3c(c2)OCO3)c2ccccc21 was tested. Which “activity change, negative = inhibition” value did it give?
Answer: Its value is inactive: -21.3%.

Question: How did the “outcome” value turn out when O=C(C1CC1)N1CCCC(c2nn(-c3ccc(F)cc3)c(=O)[nH]2)C1 (configuration not stated) was run?
Answer: Its value is “inactive [at 88.5 µM]”.

Question: With COCc1nnc(NC(=O)C[C@H]2NC(=O)c3ccccc3NC2=O)s1 as the molecule, how does the Potency read?
Answer: Its Potency is inconclusive: 8.91 µM [inhibitor, single point].

Question: O=C(CC[C@@H]1CNC(=O)[C@@H]2C[C@H](NCc3ccc(CO)o3)CN12)NCc1ccccc1 was tested. Which Potency did it give?
Answer: Its Potency is inconclusive: 11.2 µM [inhibitor, single point].

Question: Which Potency does the source give for CN(C)c1ccc(CN[C@H]2CC(C)(C)[C@@H]3C[C@@](C)(O)CC[C@]23CCC(=O)NCCc2c[nH]c3ccccc23)cc1 here?
Answer: Its Potency is inconclusive: 6.31 µM [inhibitor, full curve, poor fit].

Question: How did the Potency turn out when OC[C@H]1O[C@@H](Oc2cc(O)cc(/C=C/c3ccc(O)cc3)c2)[C@H](O)[C@@H](O)[C@@H]1O was run?
Answer: Its Potency is inconclusive: 39.8 µM [inhibitor, single point].

Question: With CC(C)OCCCNC(=O)C1N(C(C)C)C(=O)C12CCCC2 (configuration not stated) as the molecule, how does the Potency read?
Answer: The Potency was inconclusive: 2 µM [inhibitor, partial curve, poor fit].

Question: For COc1ccccc1CNC(=O)[C@@H](C)C1CC[C@@]2(C)CC[C@H](NC(=O)c3cncnc3)[C@@H](C)[C@@H]2[C@H]1O (some centres not stated), which “activity change, negative = inhibition” value is on record?
Answer: Its value is inactive: -17.5%.

Question: CN1C[C@@H](NC(=O)c2cnccn2)C[C@H]1c1nc(-c2ccc(OC(F)(F)F)cc2)no1 was tested. Which Potency did it give?
Answer: Its Potency is inconclusive: 56.2 µM [inhibitor, single point].

Question: How did the Potency turn out when O=C(OCc1ccccc1)N1CCC2(CC1)C(=O)NN=C2c1ccccn1 was run?
Answer: Its Potency is inconclusive: 6.31 µM [inhibitor, single point].

Question: Which “activity change, negative = inhibition” value does the source give for CCCN(C)c1nccnc1OC1CCN(C(=O)C2CCOCC2)C1 (configuration not stated) here?
Answer: The value was inactive: 3.8%.

Question: COc1cc(C)c(-c2nc(Cn3cccn3)c(C)o2)cc1C was tested. Which Potency did it give?
Answer: Its Potency is inconclusive: 12.6 µM [inhibitor, partial curve, poor fit].

Question: How did the Potency turn out when COc1ccc(-n2nc(C3CCN(Cc4cccc5ccccc45)CC3)[nH]c2=O)cc1 was run?
Answer: Its Potency is inconclusive: 39.8 µM [inhibitor, single point].

Question: COc1ccc(C2CNC(=O)C2)cc1OC1CCCC1 (configuration not stated) was tested. Which Potency did it give?
Answer: The Potency was inconclusive: 20 µM [inhibitor, partial curve] and inconclusive: 15.3 µM [inhibitor, single point].

Question: How did the “activity change, negative = inhibition” value turn out when CC(C)(C)OCC1CN(Cc2cccs2)S(=O)(=O)c2cnccc2O1 (configuration not stated) was run?
Answer: The value was inactive: -0.537% [at 27.3 µM].

Question: How did the “activity change, negative = inhibition” value turn out when CC(=O)N1CCC(NC2(Cc3cc(C(C)(C)O)on3)COC2)CC1 was run?
Answer: The value was inactive: 0.994% [at 88.5 µM].

Question: How did the Potency turn out when O=C(c1ccsc1)N1CCC(N2CC3CC(C2)[C@H]2CCCC(=O)N2C3)CC1 (some centres not stated) was run?
Answer: The Potency was inconclusive: 6.31 µM [inhibitor, single point].

Question: Which Potency does the source give for O=c1c(O)c(-c2ccc(O)cc2O)oc2cc(O)cc(O)c12 here?
Answer: Its Potency is inconclusive: 43.2 µM [inhibitor, single point] and inconclusive: 39.8 µM [inhibitor, single point].

Question: CCN(CC)c1ncnc2c1ncn2[C@@H]1O[C@H](COP(=O)(O)OP(=O)(O)C(Br)(Br)P(=O)(O)O)[C@@H](O)[C@H]1O was tested. Which Potency did it give?
Answer: The Potency was inconclusive: 39.8 µM [inhibitor, single point].

Question: With CCn1cc(S(=O)(=O)N2CCC(C3CCN(C(=O)NC)CC3)C2)cn1 (configuration not stated) as the molecule, how does the Potency read?
Answer: The Potency was inconclusive: 8.91 µM [inhibitor, partial curve, poor fit].

Question: For COc1ccc(C(=O)N[C@@H]2C[C@H](Cn3cc(CN(C)C)nn3)[C@@H](O)[C@H]2O)cc1, which Potency is on record?
Answer: Its Potency is inconclusive: 1 µM [inhibitor, full curve, poor fit].

Question: For CN(Cc1ccccc1C(F)(F)F)C(=O)c1cccc(Cl)c1, which “outcome” value is on record?
Answer: Its value is “inactive [at 88.5 µM]”.

Question: For CN(CC1Cc2ccccc2O1)C(=O)c1cn(Cc2ccccc2F)nn1 (configuration not stated), which Potency is on record?
Answer: The Potency was inconclusive: 35.5 µM [inhibitor, single point].

Question: With CC(C)NC(=O)N1CC[C@@H](CC(=O)O)[C@@H](CC2=NCCc3ccc(C(C)(C)C)cc32)C1 as the molecule, how does the Potency read?
Answer: Its Potency is inconclusive: 56.2 µM [inhibitor, single point].

Question: How did the “outcome” value turn out when COc1ccc(CNC(=O)Cn2c(C)cc3nc4n(c(=O)c32)CCC4)cc1OC was run?
Answer: Its value is “inactive”.

Question: With Cc1ccc(C(=O)NC(C(=O)N2CCCC2)C2CCN(C(=O)c3ccc4c(c3)OCO4)CC2)cc1 (configuration not stated) as the molecule, how does the Potency read?
Answer: The Potency was inconclusive: 0.708 µM [inhibitor, full curve, poor fit].

Question: Which Potency does the source give for O=c1ccn(C2OC(CO)C(O)C2O)c(=O)[nH]1 (configuration not stated) here?
Answer: Its Potency is inconclusive: 6.31 µM [inhibitor, single point].

Question: O=C(Cn1nc2c(cc1=O)CCCC2)NC1CCN(Cc2ccc(F)cc2)CC1 was tested. Which “activity change, negative = inhibition” value did it give?
Answer: Its value is inactive: 0.87%.

Question: Which Potency does the source give for COc1ccc2c(c1)c(CN1CCC3(CC1)CC(C(=O)N1CCOCC1)N(C)C3)cn2C (configuration not stated) here?
Answer: Its Potency is inconclusive: 5.62 µM [inhibitor, single point].

Question: Which Potency does the source give for CCOCCCNC(=O)N1CCC(N2CC3CC(C2)[C@H]2CCCC(=O)N2C3)CC1 (some centres not stated) here?
Answer: Its Potency is inconclusive: 8.91 µM [inhibitor, single point].
